# PubChem BioAssay AID1346428 (National Center for Advancing Translational Sciences (NCATS), 2018)
# “And” between values parts separate entries of the source, which are not always exact repeats. Identical values can stand only once. The whole screen tested about 48,000 compounds, of which about 1,200 (2.5%) were called active. Another 2% or so got no clear call; they are omitted.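 The calls were made as follows: active = activation of at least 60% and not above a set upper limit (about 1 call in 100 departs from these limits); inconclusive = activation of 40% to 60%, or above that upper limit; inactive = activation under 40%.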 This is one part of the list. Some compounds were tested as several samples or in several runs, with calls that do not always agree.
# Biological target: Probable G-protein coupled receptor 32 (Homo sapiens) (UniProt O75388)
# Test: qHTS for Agonists of Human Resolvin D1 Receptor DRV1; also: 0% is about no effect
# Conditions: CHO-K1 GPR32 beta-arrestin PathHunter luminescence, 90 min; at 76.9 µM; stronger effect = higher value; zero percent set by DMSO-only wells
# In short: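 Cells are plated overnight, treated with compounds in DMSO for 90 minutes at 37 °C, and developed with PathHunter detection reagent for 1 hour before luminescence is read; signal reflects beta-arrestin binding to GPR32 in engineered CHO-K1 cells.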
# UniProt O75388, sequence (O75388 whole entry, looked up): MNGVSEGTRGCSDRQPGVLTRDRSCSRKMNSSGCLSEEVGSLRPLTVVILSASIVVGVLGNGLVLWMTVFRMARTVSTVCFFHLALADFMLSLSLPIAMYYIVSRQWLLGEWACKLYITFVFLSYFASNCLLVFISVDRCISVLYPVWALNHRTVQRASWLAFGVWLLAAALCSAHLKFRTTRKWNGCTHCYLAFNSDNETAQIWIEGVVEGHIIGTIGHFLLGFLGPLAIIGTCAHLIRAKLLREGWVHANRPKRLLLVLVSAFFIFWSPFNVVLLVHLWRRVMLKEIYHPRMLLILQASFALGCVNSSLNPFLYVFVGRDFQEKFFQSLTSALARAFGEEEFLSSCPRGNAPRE
row,Compound,activation
1,CCOCCc1nnc(NC(=O)C(=O)c2cc(C)n(-c3cccc(Cl)c3)c2C)s1,inactive: 6.5%
2,COc1cc(NC(=O)c2cc(-c3cccc(Cl)c3)on2)c(OC)cc1Cl,inactive: 6.91%
3,Cc1cccc(Cn2c(=O)n(-c3ccc(Cl)c(Cl)c3)c(=O)c3c(C)c(C)sc32)c1,inactive: -0.56%
4,COc1ccccc1NC(=O)c1nc(SCc2ccc(F)cc2)ncc1Cl,inactive: 22.7%
5,CCOC(=O)c1cnc2ccccc2c1Nc1ccc(N2CCOCC2)cc1,inactive: 2.31%
6,CCc1ccc(N2CCn3c2nc2c3c(=O)n(CCc3ccccc3)c(=O)n2C)cc1,inactive: 16.7%
7,Clc1ccc(-c2nc3ccccn3c2Nc2ccc3c(c2)OCCO3)s1,inactive: -17.8%
8,Cc1ccc(N(CC(=O)N2CCN(c3cc(Cl)ccc3C)CC2)S(=O)(=O)c2c(C)noc2C)cc1,inactive: -14.6%
9,COc1ccc(OC)c(NC(=O)c2sc3nc4c(cc3c2N)CCCCCC4)c1,inactive: -26.8%
10,Cc1noc2ncnc(NCc3ccccc3Cl)c12,inactive: 24%
11,CCOc1ccc(NC(=O)C(=O)NCCc2csc(-c3ccc(C)cc3)n2)cc1,inactive: -9.58%
12,COc1ccc(NC(=O)c2sc3nc(C)c(C(=O)Nc4ccc(C)cc4C)c(-c4cccs4)c3c2N)cc1,inactive: -17.7%
13,CCN(Cc1ccccc1)C(=O)Cn1c(=O)oc2cc(S(=O)(=O)N3CCCCCC3)ccc21,inactive: -22.5%
14,Cc1ccccc1CSc1cn(CC(=O)N2CCCC2)c2ccccc12,inactive: -29.7%
15,Cc1ccc(C)c(N2CCN(C(c3ccc(F)cc3)c3nnc(-c4ccccc4)o3)CC2)c1 (centres undefined),inactive: -39.6%
16,CCC(=O)N1CCc2cc(S(=O)(=O)NCCC(=O)Nc3ccc(OC)c(OC)c3)ccc21,inactive: 5.66%
17,Cc1cnc2c(c1SCC(=O)NCc1ccc(F)cc1)c(=O)n(C)c(=O)n2C,inactive: -5.77%
18,COc1cc(-c2nnn(CC(=O)NCc3ccccc3)n2)cc(OC)c1OC,inactive: 2.09%
19,COc1ccc(NC(=O)CSc2nnc3c(C)cc4ccccc4n23)cc1,inactive: -7.27%
20,Cc1cccc(N2CCN(c3ncnc4c3c(-c3ccccc3)cn4-c3ccccc3)CC2C)c1 (centres undefined),inactive: -27.1%
21,CCOc1ccc(-c2cc(C(=O)N3CCN(c4ccc(C)cc4)C(C)C3)c3ccccc3n2)cc1 (centres undefined),inactive: -22.7%

row,Compound,activation
1,CC1Cc2ccccc2N1C(=O)CSc1nnc(-c2cccc(Cl)c2)o1 (centres undefined),inactive: 14.7%
2,CCOC(=O)c1cc(NC(=O)c2ccc(OC)cc2)c(=O)n2c1oc1ccc(Cl)cc12,inactive: 16.9%
3,CCn1c(CNC(=O)C23CC4CC(CC(C4)C2)C3)nnc1SCC(=O)Nc1ccc(F)cc1,inactive: 25.9%
4,CCOc1ccc(CCNC(=O)c2cc3c(=O)n(C)c4ccccc4c3n2C)cc1,inactive: -40.2%
5,O=C(CCc1ccccc1)NCc1ccc2c(c1)CCN2C(=O)c1ccc(Cl)cc1,inactive: -14.3%
6,O=c1[nH]c2ccc(NCc3ccccc3F)cc2[nH]1,inactive: -1.75%
7,Cc1ccc(NC(=O)CC2Sc3ccccc3NC2=O)c(Br)c1 (centres undefined),inactive: 11%
8,CCc1cccc(NC(=O)CC2Oc3ccc(C)cc3NC2=O)c1 (centres undefined),inactive: -4.52%
9,O=C(NCCS(=O)(=O)N1CCN(c2cccc(Cl)c2)CC1)c1cc(=O)c2ccccc2o1,inactive: -9.21%
10,C=C(C)Cn1c(SCC(=O)Nc2cccc(Cl)c2)nc2sc3c(c2c1=O)CCCC3,inactive: -1.25%
11,O=C(NCCC1=CCCCC1)c1ccc2c(c1)N(Cc1ccc(Cl)cc1)C(=O)c1ccccc1S2=O (centres undefined),inactive: -7.67%
12,CC1=C(c2ccc(C)c(C)c2)S(=O)(=O)N=C1N1CCC(C(=O)NCc2ccc(Cl)cc2)CC1,inactive: -12.5%
13,CCOc1ccc(NC(=O)Cn2cc(C(=O)c3ccc(CC)cc3)c(=O)c3ccc(C)nc32)cc1,inactive: 14.2%
14,CCOC(=O)c1cccc(NC(=O)c2cnc(N3CCCCC3)c3ccccc23)c1,inactive: -15%
15,COc1ccc(-n2c(=O)c3c(c4cc(OC)ccc4n3C)n(C)c2=O)cc1,inactive: 2.11%
16,Cc1ccc(CNC(=O)CN2CCCN(Cc3ccc(F)cc3)S2(=O)=O)cc1,inactive: 41.7%
17,Cc1ccc(-n2c(=O)c3cccnc3n2CC(=O)NCc2ccc(F)cc2)cc1C,inactive: -9.52%
18,Cc1cc(C)c(/C=C/c2onc(C)c2S(=O)(=O)N2CCC(C(=O)Nc3ccc(Cl)c(C(F)(F)F)c3)CC2)c(C)c1,inactive: -6.84%
19,O=C(COc1ccccc1F)Nc1ccc(Cl)c(-c2nc3ccccc3[nH]2)c1,inactive: 20.1%
20,COc1ccc(NC(=O)CSc2nccn2Cc2ccco2)cc1OC,inactive: 0.245%
21,CCN(CC)S(=O)(=O)c1ccc2c(c1)N(CC(=O)Nc1c(C)cc(C)cc1C)C(=O)C1CCCN21 (centres undefined),inactive: -23.1%

row,Compound,activation
1,CCCCOc1ccc(C(=O)Nc2onc3c2CCCC3)cc1,inactive: 45.7%
2,COC(=O)C1CCN(C(c2ccccc2Cl)c2sc3nc(-c4ccco4)nn3c2O)CC1 (centres undefined),inactive: 20.9%
3,Cc1ccc(NC(=O)C2CCCN(S(=O)(=O)c3ccc(F)cc3)C2)cc1 (centres undefined),inactive: 6.23%
4,CCOC(=O)CN1C(C(=O)c2ccccc2)=C(OC(=O)c2ccccc2)c2ccccc2S1(=O)=O,inactive: -3.48%
5,Cc1cc(C)cc(NC(=O)Nc2cccs2)c1,inactive: -9.1%
6,CCOC(=O)c1cccc(NC(=O)c2ccc3snnc3c2)c1,inactive: -1.95%
7,Cc1ccc(C)c(NC(=O)Cn2cnc3nc4c(cc3c2=O)CCCC4)c1,inactive: -3.81%
8,COc1ccccc1N1CCN(C(=O)C2CCCN(S(=O)(=O)c3ccc4c(c3)oc(=O)n4C)C2)CC1 (centres undefined),inactive: 22.1%
9,COC(=O)c1sccc1S(=O)(=O)N(CC(=O)NCc1ccccc1)c1ccc(C)cc1,inactive: -25.7%
10,Cc1ccc(Nc2nc(N)nc(N)c2S(=O)(=O)c2ccccc2)cc1,inactive: 26.7%
11,COCCNC(=O)CSc1nnc(NC(=O)Nc2ccc(C)cc2)s1,inactive: -7.29%
12,CCc1ccc(-n2c(N3CCN(c4cccc(C)c4C)CC3)nc3ccccc3c2=O)cc1,inactive: -25.3%
13,Cc1nc2ccn(Cc3cccnc3)c(=O)c2cc1C(=O)N1CCN(c2ccccc2)CC1,inactive: -6.51%
14,COc1ccccc1C(=O)Nc1nc(-c2ccc(Br)cc2)ns1,inactive: -7.17%
15,CCCCn1nc(NC(=O)c2cccc(Cl)c2)c2cc3ccc(C)cc3nc21,inactive: 7.54%
16,CC(=O)Nc1ccc(NS(=O)(=O)c2cc3c4c(c2)CC(=O)N4CCC3)cc1,inactive: -2.38%
17,COc1cccc(CNC(=O)CCCn2c(=O)c3cccn3c3cccnc32)c1OC,inactive: -22%
18,CC(C)(C)c1ccc(OCC(=O)NC(Cc2c[nH]c3ccccc23)C(=O)O)cc1 (centres undefined),inactive: -13.5%
19,COc1ccc(-c2cc3nc(C)c(CCC(=O)N4CCN(c5cc(C)ccc5C)CC4)c(C)n3n2)c(OC)c1,inactive: -11.9%
20,Cn1cc(S(=O)(=O)c2ccc(Cl)cc2)c(=O)c2cc(F)c(N3CCOCC3)cc21,inactive: 1.43%
21,CN[C@H]1CC[C@@H](c2ccc(Cl)c(Cl)c2)c2ccccc21,active: 80.8% and inactive: 6.38%

row,Compound,activation
1,COc1cc(C(=O)NCCS(=O)(=O)N2CCN(c3ccccc3)CC2)cc(OC)c1OC,inactive: -21.4%
2,CCOc1ccc(NC(=O)CN2CCN(CC(=O)Nc3ccc(OC)cc3)CC2)cc1,inactive: -12%
3,Cc1ccc(Nc2c(-c3ccccc3O)nc3cc(C)ccn23)cc1,inactive: -13.2%
4,CN(C(=O)CSc1nc2ccc(NC(=O)COc3ccccc3Cl)cc2s1)c1ccccc1,inactive: 18.4%
5,COc1ccccc1/C=C/c1nc(C#N)c(N2CCN(c3ccccc3)CC2)o1,inactive: -20.7%
6,COc1ccc(N2CCN(S(=O)(=O)CCNC(=O)c3ccc(OC(C)C)cc3)CC2)cc1,inactive: -7.46%
7,COc1ccc(-c2cc(C(F)(F)F)nc(NCCc3ccccc3)n2)cc1,inactive: 10.7%
8,O=C(NCCc1ccccc1)c1cc2sccc2n1Cc1ccc(F)cc1,inactive: -3.31%
9,Cc1c(-c2ccc(Cl)cc2)c(=O)oc2c(CN3CCOCC3)c(O)ccc12,inactive: -1.33%
10,COC(=O)c1cccc(CN2C(=O)SC(Nc3ccc(Br)cc3)C2=O)c1 (centres undefined),inactive: -83.7%
11,CSc1cccc(NC(=O)C(c2ccccc2)N2Cc3ccccc3C2=O)c1 (centres undefined),inactive: -24.5%
12,Cc1ccc(NC(=O)CSc2nc3ccc(NC(=O)c4ccco4)cc3s2)c(C)c1,inactive: 15.7%
13,CNC(=O)c1c(NC(=O)c2ccc(S(=O)(=O)N3CCCC(C)C3)cc2)sc2c1CCC2 (centres undefined),inactive: -8.05%
14,CC(CNC(=O)c1ccc2c(c1)nc1n2CCOC1)c1ccccc1 (centres undefined),inactive: -7.95%
15,CC(C)NC(=O)CSc1nc2ccccc2c(=O)n1Cc1ccc(C(=O)NC(C)C)cc1,inactive: -17.4%
16,O=C(CCS(=O)(=O)c1cccc2nonc12)Nc1cccc(F)c1,inactive: -6.2%
17,Cc1cccc(C)c1OCCn1c(C2CC(=O)N(Cc3ccc(F)cc3)C2)nc2ccccc21 (centres undefined),inactive: 11%
18,O=C(CSc1nc(=O)[nH]c2c1CCC2)NCc1ccc(Cl)cc1,inactive: 0.504%
19,Cc1noc2ncnc(N3CCN(c4ccccc4F)CC3)c12,inactive: 20.6%
20,CCSc1ncc(Cl)c(C(=O)Nc2ccc(S(=O)(=O)Nc3nccc(C)n3)cc2)n1,inactive: -9.39%
21,Cc1ccc(Cl)cc1NC(=O)Cn1cc2c(n1)CCCCC2,inactive: -7.3%
